Test results reported in the supplement of paper PMC9334596.
“And” between values parts separate entries of the source, which are not always exact repeats. Equal entries are not always repeated. Whole data set: some 5,300 compounds, median “PER2::LUC luminescence relative to vehicle control” near 0.96, cut for the highest 2% near 1.3. This is one part of the list.

Tested on: mPer2Luc MEF
Assay: PER2::LUC luminescence relative to vehicle control (fold of vehicle); higher = higher PER2::LUC reporter signal
Conditions: 10 µM
Procedure, shortened: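 The reported values are PER2::LUC luminescence as fold of vehicle control in mouse embryonic fibroblasts carrying the mPer2Luc reporter. Cells were seeded at ~3000 per well in 384-well plates in DMEM with 10% FBS at 37 °C and 5% CO2, and compounds were added at 10 μM 48 h later. ONE-Glo luminescence was read 24 h and 30 h after treatment.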

| Compound | PER2::LUC luminescence (time after treatment 24 h) | PER2::LUC luminescence (time after treatment 30 h) |
| --- | --- | --- |
| C[C@H](N)[C@H](O)c1cccc(O)c1 | 1.03 | 0.965 |
| COc1ccc(-c2nc(-c3ccc(-c4cccc(Cl)c4)o3)[nH]c2-c2ccc(OC)cc2)cc1 | 1.2 | 1.08 |
| CC1(C)S[C@@H]2[C@H](NC(=O)C(C(=O)O)c3ccccc3)C(=O)N2[C@H]1C(=O)O (stereo partly drawn) | 1.05 | 1.03 |
| CCN(CC)CCOC(=O)C(Cc1cccc2ccccc12)CC1CCCO1 (stereo not drawn) | 1.09 | 0.939 |
| CC(C)NCC(O)COc1ccc(COCCOC(C)C)cc1 (racemic) | 0.958 | 0.87 |
| CC(C)(C)C(=O)C(Oc1ccc(Cl)cc1)n1ccnc1 (stereo not drawn) | 1.07 | 0.832 |
| Cc1c(C(=O)O)c(O)cc2c1C(=O)c1c(O)c([C@@H]3O[C@H](CO)[C@@H](O)[C@H](O)[C@H]3O)c(O)c(O)c1C2=O | 1.02 | 0.987 |
| Cc1nc2sccn2c(=O)c1CCN1CCC(=C(c2ccccc2)c2ccc(F)cc2)CC1 | 0.916 | 0.95 |
| CC(C)=CCC/C(C)=C/CC/C(C)=C/CO | 1.05 | 1.13 |
| NC(N)=NC(=O)c1nc(Cl)c(N2CCCCCC2)nc1N | 1.06 | 1.13 |
| CS(=O)(=O)c1ccc(-c2cc(Br)sc2-c2ccc(F)cc2)cc1 | 1.07 | 1.04 |
| O=C1CN(/N=C/c2ccc([N+](=O)[O-])o2)C(=O)N1 | 1.05 | 1.26 |
| c1ccc2c(c1)CN1CCCC1=N2 | 1.03 and 0.845 | 0.945 and 0.866 |
| S=c1ccss1 | 0.946 | 0.894 |
| CC1=C(CC(=O)O)c2cc(F)ccc2/C1=C\c1ccc(S(C)(=O)=O)cc1 | 1 | 0.896 |
| N[C@H](C(=O)O)c1ccc(C(=O)O)cc1 | 0.982 | 0.945 |
| CC(C)N(CCCNC(=O)Nc1ccc(C(C)(C)C)cc1)C[C@H]1O[C@@H](n2cc(Br)c3c(N)ncnc32)[C@H](O)[C@@H]1O | 0.698 | 0.757 |
| Cc1ccccc1OCC(O)CO (stereo not drawn) | 0.966 | 1.05 |
| CC(C)CN(C)c1nc(N)c(C(=O)N=C(N)N)nc1Cl | 1.16 | 1.11 |
| CC1(C)S[C@@H]2[C@H](NC(=O)[C@H](C(=O)O)c3ccsc3)C(=O)N2[C@H]1C(=O)O | 1.05 | 0.927 |
| O=C(c1ccc2c(c1)OCCO2)N1CCCCC1 | 0.924 | 0.831 |

| Compound | PER2::LUC luminescence (time after treatment 24 h) | PER2::LUC luminescence (time after treatment 30 h) |
| --- | --- | --- |
| CCCC(=O)OCc1ccc(OC(=O)/C=C(C)/C=C/C=C(C)/C=C/C2=C(C)CCCC2(C)C)cc1 | 1.02 | 1.16 |
| Cc1cc(NS(=O)(=O)c2ccc(N)cc2)no1 | 1.11 | 1 |
| CN[C@@H]1[C@@H](O)[C@@H](O[C@@H]2[C@@H](O)[C@H](O[C@H]3OC(CN)=CC[C@H]3N)[C@@H](N)C[C@H]2N)OC[C@]1(C)O | 1.12 | 0.807 |
| O=C1CN(/N=C/c2ccc(-c3ccc([N+](=O)[O-])cc3)o2)C(=O)N1 | 0.841 | 0.783 |
| Nc1[nH]nc2nnc(-c3c(-c4ccccc4)nn4ccccc34)cc12 | 0.842 | 0.866 |
| C=C[C@@H](C1=CC(=O)C(OC)=C(OC)C1=O)c1ccccc1 | 1 | 0.958 |
| CC(C)OC(=O)CCC/C=C\C[C@@H]1[C@@H](/C=C/[C@@H](O)COc2cccc(C(F)(F)F)c2)[C@H](O)C[C@@H]1O | 0.95 | 0.917 |
| C[C@@H](NC(=O)c1cc(C(=O)N[C@@H](Cc2ccccc2)[C@H](O)CNC2CC2)cc(N(C)S(C)(=O)=O)c1)c1ccccc1 | 1.01 | 1.09 |
| CCC(=O)Oc1ccc2c(c1)CC[C@@H]1[C@@H]2CC[C@]2(C)[C@@H](OC(=O)CC)CC[C@@H]12 | 1.04 | 0.909 |
| CC1(O)CCC(C(C)(C)O)CC1 (stereo not drawn) | 0.901 and 0.99 | 0.986 and 0.688 |
| CCOC(=O)n1ccn(C)c1=S | 1.14 | 0.86 |
| NC(=O)[C@H]1CCCCc2c1[nH]c1ccc(Cl)cc21 | 1.19 | 1.11 |
| COc1cc(O)c2c(c1)C(=O)c1cc(C)cc(O)c1C2=O | 0.928 | 0.907 |
| CC(C)[C@H]1c2ccc(F)cc2CC[C@@]1(CCN(C)CCCc1nc2ccccc2[nH]1)OC(=O)C1CC1 | 0.499 | 0.431 |
| CCCC1O[C@@H]2C[C@H]3[C@@H]4CCC5=CC(=O)C=C[C@]5(C)[C@H]4[C@@H](O)C[C@]3(C)[C@]2(C(=O)CO)O1 (stereo partly drawn) | 0.646 | 1.22 |
| NCCC1CCCC(CCN)N1 (stereo not drawn) | 0.959 | 1.08 |
| CNC(=O)[C@@H](c1ccccc1)N1CCc2cc(OC)c(OC)cc2[C@@H]1CCc1ccc(C(F)(F)F)cc1 | 0.859 | 0.871 |
| COc1cc(C(C)=O)ccc1OCCCN1CCC(c2noc3cc(F)ccc23)CC1 | 0.924 | 0.863 |
| CCOC(=O)[C@H](CCc1ccccc1)N[C@H]1CCCN2CCC[C@@H](C(=O)O)N2C1=O | 1.24 | 1.13 |
| CCOc1ccc(Cc2cc([C@]34OC[C@](CO)(O3)[C@@H](O)[C@H](O)[C@H]4O)ccc2Cl)cc1 | 1.05 | 1.06 |
| CN1[C@@H]2CC[C@H]1CC(OC(=O)c1c[nH]c3ccccc13)C2 (stereo partly drawn) | 0.775 | 0.9 |

| Compound | PER2::LUC luminescence (time after treatment 24 h) | PER2::LUC luminescence (time after treatment 30 h) |
| --- | --- | --- |
| CCCCCCCCCCCCCCCCCCOCC(COP(=O)([O-])OCC[N+](C)(C)C)OC (stereo not drawn) | 0.911 | 0.947 |
| COc1cccc(-c2ccc([C@@H](Oc3cc(-c4ccc(C[C@H](N)C(=O)O)cc4)nc(N)n3)C(F)(F)F)cc2)c1 | 1.01 | 0.971 |
| COc1cc(C(O)CO)ccc1OS(=O)(=O)O (stereo not drawn) | 1.07 | 0.824 |
| CC(C)c1c(O)ccc2c1CC[C@H]1C(C)(C)CCC[C@]21C | 0.774 | 0.925 |
| c1cc(-c2cnn3cc(-c4ccc(N5CCNCC5)cc4)cnc23)c2cccnc2c1 | 0.122 | 0.17 |
| CON(Cc1ccc(F)cc1)C(=O)/C=C(\O)C(=O)O | 0.942 | 0.968 |
| CCCCC(CC)COC(=O)C=Cc1ccc(OC)cc1 (stereo not drawn) | 1.09 | 1.14 |
| CCCC(C(=O)O)c1c(C)nc2ccc(Cl)cc2c1-c1ccccc1 (stereo not drawn) | 1.02 | 0.957 |
| COC(=O)c1c(C)[nH]c(C)c1C(=O)c1ccccc1Cc1ccccc1 | 0.992 | 0.83 |
| O=C1O/C(=C/Br)CCC1c1cccc2ccccc12 (stereo not drawn) | 1.02 | 1.04 |
| CCCCN(Cc1ccc(C(=O)NO)cc1)C(=O)Nc1ccccc1 | 0.455 | 0.837 |
| COC(=O)N[C@H](C(=O)N1CCC[C@H]1c1ncc(-c2ccc(-c3ccc(-c4cnc([C@@H]5CCCN5C(=O)[C@@H](NC(=O)OC)C(C)C)[nH]4)cc3)cc2)[nH]1)C(C)C | 0.672 | 0.674 |
| CC(C(=O)O)c1cccc(C(=O)c2ccccc2)c1 (stereo not drawn) | 0.655 | 1.01 |
| Nc1nc(N)c2nc(CNc3ccc(C(=O)N[C@@H](CCC(=O)O)C(=O)O)cc3)cnc2n1 | 0.809 | 0.637 |
| O=NN(CCCl)C(=O)NCCCl | 0.958 | 0.982 |
| CCOC(=O)c1ncn2c1CN(C)C(=O)c1cc(F)ccc1-2 | 1.01 | 1.01 |
| COc1cc(/C=C/c2ccc(O)cc2)cc(OC)c1 | 1.03 | 0.93 |
| NCC(O)(CS(=O)(=O)O)c1ccc(Cl)cc1 (stereo not drawn) | 1.12 | 1.18 |
| CC[C@H](NC(=O)c1c(C)c(-c2ccccc2)nc2ccccc12)c1ccccc1 | 1.01 | 0.887 |
| CNC(=O)c1ccccc1Nc1nc(Nc2ccc(N3CCOCC3)cc2OC)ncc1Cl | 0.37 | 0.217 |
| CC1=C(C(=O)Nc2cc3cn[nH]c3cc2F)C(c2ccc(C(F)(F)F)cc2)CC(=O)N1 (stereo not drawn) | 0.741 | 0.877 |

| Compound | PER2::LUC luminescence (time after treatment 24 h) | PER2::LUC luminescence (time after treatment 30 h) |
| --- | --- | --- |
| CO/S(=N\S(=O)(=O)c1ccc(Cl)cc1)c1ccc([N+](=O)[O-])cc1 (stereo not drawn) | 0.994 | 1.22 |
| Cc1cc(C)c2c(c1)[C@@H](N(Cc1cc(C(F)(F)F)cc(C(F)(F)F)c1)c1nnn(C)n1)CCCN2C[C@H]1CC[C@H](C(=O)O)CC1 | 1.13 | 1.19 |
| Cn1c(C#N)ccc1-c1ccc2c(c1)C(C)(C)OC(=S)N2 | 0.558 | 0.575 |
| CC1=C(/C=C/C(C)=C/C=C/C(C)=C/C=C/C=C(C)/C=C/C=C(C)/C=C/C2=C(C)C(=O)CCC2(C)C)C(C)(C)CCC1=O | 0.908 | 0.963 |
| Cn1c(=O)n(-c2ccc(C(C)(C)C#N)cc2)c2c3cc(-c4cnc5ccccc5c4)ccc3ncc21 | 0.194 | 0.233 |
| CC1(C)CC23C(=O)CCC(O)C2(C)CCC13 (stereo not drawn) | 0.96 | 0.967 |
| CCOC(=O)C1=C(C)NC(C)=C(C(=O)OCC)C1c1ccccc1/C=C/C(=O)OC(C)(C)C | 0.994 | 0.996 |
| CCOc1cc(CC(=O)N[C@@H](CC(C)C)c2ccccc2N2CCCCC2)ccc1C(=O)O | 0.961 | 0.997 |
| O=C(O)C(Cc1c[nH]c2ccccc12)N1C(=O)c2ccccc2C1=O (stereo not drawn) | 1.08 and 0.907 | 1.04 and 0.907 |
| COc1cc2c(cc1OC)C1(O)C(=O)c3ccc(O)c(C(=O)O)c3OC1CO2 (stereo not drawn) | 1 | 0.915 |
| CCC(C(N)=O)c1ccccc1 (stereo not drawn) | 1 | 0.904 |
| C#C[C@]1(O)CC[C@H]2[C@@H]3CCc4cc(O)ccc4[C@H]3CC[C@@]21C | 0.981 and 0.937 | 1.09 and 0.892 |
| NC(CCCP(=O)(O)O)C(=O)O (stereo not drawn) | 1.06 | 0.968 |
| NCCCC[C@H](NC(=O)[C@@H]1CCCN1C(=O)[C@@H]1CSSC[C@H](N)C(=O)N[C@@H](Cc2ccccc2)C(=O)N[C@@H](Cc2ccccc2)C(=O)N[C@@H](CCC(N)=O)C(=O)N[C@@H](CC(N)=O)C(=O)N1)C(=O)NCC(N)=O | 1.08 | 1.13 |
| Cc1occc(=O)c1O | 0.968 and 1 | 0.995 and 0.951 |
| CC#CC(=O)Nc1ccc2ncnc(Nc3cccc(Br)c3)c2c1 | 0.486 | 0.447 |
| O=S(=O)(c1ccccc1)N(CC(F)(F)F)c1ccc(C(O)(C(F)(F)F)C(F)(F)F)cc1 | 1.22 | 1.18 |
| O=C(O)c1ccc(N2C(=O)/C(=C\c3ccc(-c4ccc([N+](=O)[O-])cc4)o3)C=C2c2ccccc2)cc1 | 0.882 | 0.902 |
| CC(C)=CC1C(CO)C1(C)C (stereo not drawn) | 1.15 | 1.12 |
| C[C@H](NC[C@H](O)CP(=O)(O)CC1CCCCC1)c1ccc(Cl)c(Cl)c1 | 1 | 0.968 |
| Nc1nc2c(ncn2COCCO)c(=O)[nH]1 | 1.18 and 0.969 | 0.843 and 0.929 |
